Among the data in publication PMC10726135 are binding signal (log2 normalized intensity) values, retold here.

This is one part of the list. At the low end of the ranking, values are background and their order means little. The protein was read in a cell extract, so binding may be indirect.

This assay deals with T1, HNF4alpha8 (COS-7 nuclear extract) (UniProt P41235-5).
T1 sequence: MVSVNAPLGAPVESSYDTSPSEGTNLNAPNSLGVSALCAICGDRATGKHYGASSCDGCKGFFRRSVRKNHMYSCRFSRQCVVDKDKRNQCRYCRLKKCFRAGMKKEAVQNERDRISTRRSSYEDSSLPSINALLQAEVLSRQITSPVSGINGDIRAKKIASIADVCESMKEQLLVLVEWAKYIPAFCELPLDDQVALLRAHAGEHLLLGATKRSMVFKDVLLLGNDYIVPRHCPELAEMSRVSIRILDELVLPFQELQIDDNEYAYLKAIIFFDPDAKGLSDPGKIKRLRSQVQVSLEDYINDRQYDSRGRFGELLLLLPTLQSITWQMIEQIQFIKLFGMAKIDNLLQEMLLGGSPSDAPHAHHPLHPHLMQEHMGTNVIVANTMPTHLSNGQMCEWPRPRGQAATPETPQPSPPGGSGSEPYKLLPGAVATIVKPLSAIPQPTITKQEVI
Description: protein-binding microarray. The conditions noted are these: COS-7 nuclear extract on double-stranded Agilent 4x180k PBM; binding buffer, salt, pH and temperature not given; high values mean tight binding; double strand, one strand shown; sequences stand for … in …GCCTAGGGAGATTAGAGTATCGGTCGA
In the case of TATGTTTGTGCTGGTTACTAAACACTTACA, the binding signal (log2 normalized intensity) was -1.35. Consider CGGCGGCCCAGTCAAACCCCGCGCTCCAGG, for which the binding signal (log2 normalized intensity) is -1.22. The same measure for ACAAATGTCAGACAAACAGACTTCACACTA: -1.24. Turning to AGATGGTCTCAGGTGGAGATAAGGAATTTG, the binding signal (log2 normalized intensity) is -1.15. Then ATACTTAGGATTTTTGTGCCTCTTTGGTGA, with 0.277; and GATGCATGCACTTCATTGTGCACCCACTTG, with -0.982.

For the sequence GAACCCAAGCAATCTGGCTGCAGAGTCCAA, the binding signal (log2 normalized intensity) amounted to 2.97. Then CTTTTGTTTTTCTTCAAGGAGGTGAACTTT, with 5.95. Regarding CCCCTGCACAGTCAAAAATTTGTGTGTAAC, the binding signal (log2 normalized intensity) turned out to be 1.91. The same measure for CTCTCCCTCCTCTCTGAGCAGTCAAACTGG: 1.89; for GGTCAAGCTAAGCACAACTGATTCTATTTA: -1.27; for ACTGCCCTCTGCCTTTCAGGCAGGAGACGA: -1.18.

As for GGGTTCTTGGATCCTCAGGGTTCATAGATG, the binding signal (log2 normalized intensity) was 2.22. Turning to TTCCCTCTCTCCTGGTTTGGGGCCTAAATG, the binding signal (log2 normalized intensity) is 1.08. AAGTTTGCAAACAGTAAAGAACAAACTTCC: the binding signal (log2 normalized intensity) is -1. Then TGAATGCCTGGGCATGGCTGTGTTCCAGTA, with 0.596. Then GGTACCCTGGATACGGAAGGTGCTCAGAAA, with -1.4; and CAACGGAGGTGGGAAAGACTTAGGATCTAG, with -1.41; and GTCCCGTTATGGCACCAAGAAACCTTTCCC, with -1.21. Regarding CTACAGCCCACAATTGCATGTTCAACAGAC, the binding signal (log2 normalized intensity) was -1.21.

In the case of TATGCCCAGAGCTTTGTTCTGTTCCAGTTA, the binding signal (log2 normalized intensity) is -0.0226. Then GAGTAAAGTATCCAGTTAATCCCAGAAGAA, with -1.15; and TGCGCAAACATAAAGGCAAAGGTCAAGGAC, with 4.9; and GTTTCCCTGTTTGCTTCTGCCCCCTGGAGG, with 3.5. Take TTGCTGCTCTCGCCTGGAAGTCCATTTCCC: the binding signal (log2 normalized intensity) came out at 1.87. On to GCTAAACAATTAAAGAACTCTTCATTATGG, for which the binding signal (log2 normalized intensity) was -1.07. Then GAAGGCCCCAATTGCCAAGGGGGTGGTGAA, with -1.35. As for TCATTACCTCCCTGGGCATGTCTGCTCCCT, the binding signal (log2 normalized intensity) was determined as 1.73. The same measure for TATGGCGAAAAAGGAAATATCTTCCCATAA: -1.33; for CTCTGCACCCTTCCCTGAGTTTCCATTAAC: 1.46. For AGCCTTAGGTATGCCCCATGGTAAGAACTA, the binding signal (log2 normalized intensity) was determined as 0.685. TTTCACAAATCATTACTATCTGCTGGGGGC: the binding signal (log2 normalized intensity) was determined as 0.648. For CTTGTATCGCCTGAATGACCACATGCCCTC, the binding signal (log2 normalized intensity) is 3.1. For GGGAACTCCCTGACCCCTAGCACTTCCCGA, the binding signal (log2 normalized intensity) was found to be 3.73. Then ATTGCCAATATCTGCCATCTACTAAGTGCT, with -1.39; and TGAATCCTCTTTGAGTCTGGTGTTCTCTTG, with 1.65; and TTTGCTTAGTCTTATCTGAGGTGCCCTTAC, with 2.96. Then GGTCACAGTAACAGGGAGTCTGTTGCAAGC, with -0.937.

As for AACAGCAGCCACATTCCATGAGCTGGCCTC, the binding signal (log2 normalized intensity) is -1.44. The same measure for ACCATCTCCTTTTGTGAGAGGTCAATGTCC: 7.14. As for CTCCTGCCCTACTCCCTTAAATAATGCATA, the binding signal (log2 normalized intensity) was 0.789. Then CCAACTCCCCTCCCAAGGCAGCAATCCCCT, with 4.9; and GCTTGAAAACACAACAAAAGAACTCAAGAG, with -1.34; and GAGCACAGAAGGAGGGCGGGGAGTCTCCTG, with -1.26. Turning to CACGTAAATAAGGATAAAGTAAGGTGAAGC, the binding signal (log2 normalized intensity) was -1.39. The same measure for TGCTCCAGGCAAAGGGCATAACATGAGGCA: 0.359.

As to AACAAACTTTGCTGTGTCCCACAGGGAAAG, the binding signal (log2 normalized intensity) was -1.09. Then AACATCTTTGGTATGGACTGATATTCAAAC, with 1.24. As to CACACCACACTCTCCTCCTGGCCTCCACTC, the binding signal (log2 normalized intensity) is -1.17.

For the sequence CTGTGCTTTGGCCAAATAATAGCATTGTAG, the binding signal (log2 normalized intensity) stood at 0.31.

With GCTTCTCTTGGACCTCAATGTGCTCATCCA, the binding signal (log2 normalized intensity) came to 1.42.

Regarding GGAAGGTGCCAAGCATTCTAATCATTGAGG, the binding signal (log2 normalized intensity) is -1.35. The same measure for ATCCTTATCTTGTAGAAAAGTGCATGGATT: 1.09.

Turning to CCCACTCTTAGCAGAGATTCCTGCTGAGTT, the binding signal (log2 normalized intensity) is -1.3. Then GGAGTTGGAACGGGGGCAAGGGTCAGAGTA, with 5.28.

Turning to ACGTGGCAATCATTCTGTCTGCCTTCAGGC, the binding signal (log2 normalized intensity) was -1.23.

As to AGCCTTCCTGTTCAACTATTCCTCGACCTT, the binding signal (log2 normalized intensity) stood at 2.71. The same measure for ATCCAGTAGAGGGCATAGCAGATAAGCATT: -1.23; for CCCTTTGCACATGCCCCTCCCAGGGACACA: 3.73; for GCTCCAGGTAGTCCCTGCTCCACGCAAACA: -1.33. As for GTTGCCTATGCCCTTTGAAATTCTGGACTT, the binding signal (log2 normalized intensity) came out at 3.45.

Take CAGGGTGGACTTTAAACATTCCCACCTAAG: the binding signal (log2 normalized intensity) was found to be 3.87.

As for GAACGCTCACAGAAAGAAGAGACAGCTGGG, the binding signal (log2 normalized intensity) is -1.32. TATATGTTTTGCAACAAAGGCACTTTGATA: the binding signal (log2 normalized intensity) stood at 1.8. Then GTGTGGCATCTTGGGGTCAAGGCCTTTAAG, with 2.33; and AATTCTTTGCTGTGGTAGGCTGTCCTGTGC, with 1.84. Turning to TGACTTCCAATTTACTTTTTAAACACCTAG, the binding signal (log2 normalized intensity) is -1.45. The same measure for GTTCTGCCATCTCGCAGAAAGTGGCCGGAC: 1.64; for GCTTAGGACTGCAGGGGGCCAAGGGATACC: -1.25. For CTCTGCAGTAACTGTCATGGATGACCTCTT, the binding signal (log2 normalized intensity) was 5.1. Then CAGCAAACAGGTCCTGCTGGTTTGCCATTT, with 0.235; and CCGGACACAAAAGCTGCTGCCAAGCGTCAG, with -1.44. Then AATACGACCTTTGGACAGGGTGACGTCATT, with 6.84.
